Results as given in patent publication US20240262848A1, “HETEROCYCLIC COMPOUNDS, COMPOSITIONS THEREOF, AND METHODS OF TREATMENT THEREWITH” (BeiGene, Ltd., priority 2022, published 2024).

target: GST-tagged GDP-loaded WT KRAS (amino acids 1-169) (Homo sapiens, UniProt P01116); test: KRAS WT probe displacement assay (run with the KRAS G12V assay, TR-FRET); type: binding; settings: Table 4; WT KRAS 3 nM, biotinylated probe 1 60 nM

Point of comparison: `CN1CCCOc2nc(-c3cc(N)cc(Cl)c3C(F)(F)F)c(F)c3nc(OC[C@@]45CCCN4C[C@H](F)C5)nc1c23` [Example 9, 3-chloro-5-(4-fluoro-2-(((2R,7aS)-2-fluorotetrahydro-1H-pyrrolizin-7a(5H)-yl)methoxy)-11-methyl-8,9,10,11-tetrahydro-7-oxa-1,3,6,11-tetraazacycloocta[de]naphthalen-5-yl)-4-(trifluoromethyl)aniline], pIC50 8.00. Against it:
- Cc1c(F)c(N)cc(-c2nc3c4c(nc(OC[C@@]56CCCN5C[C@H](F)C6)nc4c2F)N(C)[C@H]2CCOC[C@@H]2O3)c1C(F)(F)F [Example 67, 2-fluoro-5-((7aR,11aS)-4-fluoro-2-(((2R,7aS)-2-fluorotetrahydro-1H-pyrrolizin-7a(5H)-yl)methoxy)-12-methyl-7a, 8,10,11,11a, 12-hexahydro-7,9-dioxa-1,3,6,12-tetraazapleiaden-5-yl)-3-methyl-4-(trifluoromethyl)aniline] — 1.06 log units higher, 9.06
- CN1c2nc(OC[C@@]34CCCN3C[C@H](F)C4)nc3c(F)c(-c4cc(N)cc(Cl)c4C(F)(F)F)nc(c23)OCC12CCC2 [Example 24, 3-chloro-5-(4′-fluoro-2′-(((2R,7aS)-2-fluorotetrahydro-1H-pyrrolizin-7a(5H)-yl)methoxy)-10′-methyl-8′H, 10′H-7′-oxa-1′,3′,6′,10′-tetraazaspiro[cyclobutane-1,9′-cyclohepta[de]naphthalen]-1′(10a′), 2′,3a′, 3 al′(6a′), 5′-pentaen-5′-yl)-4-(trifluoromethyl)aniline] — 0.38 log units higher, 8.38
- Nc1cc(Cl)c(C(F)(F)F)c(-c2nc3c4c(nc(OC[C@@]56CCCN5C[C@H](F)C6)nc4c2F)N(C2CC2)CCO3)c1 [Example 8, 3-chloro-5-(10-cyclopropyl-4-fluoro-2-(((2R,7aS)-2-fluorotetrahydro-1H-pyrrolizin-7a(5H)-yl)methoxy)-9,10-dihydro-8H-7-oxa-1,3,6,10-tetraazacyclohepta[de]naphthalen-5-yl)-4-(trifluoromethyl)aniline] — 0.20 log units lower, 7.80
- C#Cc1c(F)ccc2cc(O)cc(-c3cc4c5c(nc(OC[C@@]67CCCN6C[C@H](F)C7)nc5c3F)N(C)CCCO4)c12 [Example 1, 5-ethynyl-6-fluoro-4-(11-fluoro-2-(((2R,7aS)-2-fluorotetrahydro-1H-pyrrolizin-7a(5H)-yl)methoxy)-4-methyl-4,5,6,7-tetrahydro-[1,5]oxazocino[4,3,2-de]quinazolin-10-yl)naphthalen-2-ol] — within 0.2 log units, 7.96
- Nc1cc(Cl)c(C(F)(F)F)c(-c2nc3c4c(nc(OC[C@@]56CCCN5C[C@H](F)C6)nc4c2F)N(CCO)CCO3)c1 [Example 7, 2-(5-(5-amino-3-chloro-2-(trifluoromethyl)phenyl)-4-fluoro-2-(((2R,7aS)-2-fluorotetrahydro-1H-pyrrolizin-7a(5H)-yl)methoxy)-8,9-dihydro-10H-7-oxa-1,3,6,10-tetraazacyclohepta[de]naphthalen-10-yl)ethan-1-ol] — 0.29 log units higher, 8.29
- Nc1cc(Cl)c(C(F)(F)F)c(-c2nc3c4c(nc(OC[C@@]56CCCN5C[C@H](F)C6)nc4c2F)N(C2CC2)CCCO3)c1 [Example 4, 3-chloro-5-(11-cyclopropyl-4-fluoro-2-(((2R,7aS)-2-fluorotetrahydro-1H-pyrrolizin-7a(5H)-yl)methoxy)-8,9,10,11-tetrahydro-7-oxa-1,3,6,11-tetraazacycloocta[de]naphthalen-5-yl)-4-(trifluoromethyl)aniline] — within 0.2 log units, 8.14
- CN1c2nc(OCC3(C)CCC4COCCN4C3)nc3c(F)c(-c4cc(N)cc(Cl)c4C(F)(F)F)nc(c23)O[C@H]2COCC[C@@H]21 (stereo partly drawn) [Example 60, 3-chloro-5-((7aR,11aS)-4-fluoro-12-methyl-2-((7-methyloctahydropyrido[2,1-c][1,4]oxazin-7-yl)methoxy)-7a, 8,10,11,11a, 12-hexahydro-7,9-dioxa-1,3,6,12-tetraazapleiaden-5-yl)-4-(trifluoromethyl)aniline] — 0.80 log units higher, 8.80
- CN1c2nc(OC[C@@]34CCCN3C[C@H](F)C4)nc3c(F)c(-c4cc(N)cc(Cl)c4C(F)(F)F)nc(c23)OC[C@H]2COC[C@@H]21 (single isomer, unassigned) [Example 68 Isomer 1] — 1.03 log units higher, 9.03
- CCN1c2nc(OC[C@@]34CCCN3C[C@H](F)C4)nc3c(F)c(-c4cc(N)cc(C)c4C(F)(F)F)nc(c23)OCCC12CC2 [Example 54, 3-(11-ethyl-4-fluoro-2-(((2R,7aS)-2-fluorotetrahydro-1H-pyrrolizin-7a(5H)-yl)methoxy)-8,9-dihydro-11H-7-oxa-1,3,6,11-tetraazaspiro[cycloocta[de]naphthalene-10,1′-cyclopropan]-1(11a), 2,3a, 3a^1(6a), 5-pentaen-5-yl)-5-methyl-4-(trifluoromethyl)aniline] — 0.47 log units higher, 8.47
- Cc1cc(N)cc(-c2nc3c4c(nc(OC[C@@]56CCCN5C[C@H](F)C6)nc4c2F)N(C)C2(CCO3)CC2)c1C(F)(F)F [Example 53, 3-(4-fluoro-2-(((2R,7aS)-2-fluorotetrahydro-1H-pyrrolizin-7a(5H)-yl)methoxy)-11-methyl-8,9-dihydro-11H-7-oxa-1,3,6,11-tetraazaspiro[cycloocta[de]naphthalene-10,1′-cyclopropan]-1(11a), 2,3a, 3 al(6a), 5-pentaen-5-yl)-5-methyl-4-(trifluoromethyl)aniline] — 0.72 log units higher, 8.72
- CCN1c2nc(OCC34CCCN3CC(F)C4)nc3c(F)c(-c4cc(N)cc(Cl)c4C(F)(F)F)nc(c23)OCCC12CC2 [Example 55, 3-chloro-5-(11-ethyl-4-fluoro-2-(((2R,7aS)-2-fluorotetrahydro-1H-pyrrolizin-7a(5H)-yl)methoxy)-8,9-dihydro-11H-7-oxa-1,3,6,11-tetraazaspiro[cycloocta[de]naphthalene-10,1′-cyclopropan]-1(11a), 2,3a, 3 al(6a), 5-pentaen-5-yl)-4-(trifluoromethyl)aniline] — 1.06 log units higher, 9.06
- CN1CCOC(C)(COc2nc3c4c(nc(-c5cc(N)cc(Cl)c5C(F)(F)F)c(F)c4n2)O[C@H]2COCC[C@@H]2N3C)C1 (stereo partly drawn) [Example 63, 3-chloro-5-((7aR,11aS)-2-((2,4-dimethylmorpholin-2-yl)methoxy)-4-fluoro-12-methyl-7a, 8,10,11,11a, 12-hexahydro-7,9-dioxa-1,3,6,12-tetraazapleiaden-5-yl)-4-(trifluoromethyl)aniline] — 0.57 log units higher, 8.57
- CN1c2nc(OC[C@@]34CCCN3C[C@H](F)C4)nc3c(F)c(-c4cc(N)cc(Cl)c4C(F)(F)F)nc(c23)OCC12COC2 [Example 23, 3-chloro-5-(4-fluoro-2-(((2R,7aS)-2-fluorotetrahydro-1H-pyrrolizin-7a(5H)-yl)methoxy)-10-methyl-8H, 10H-7-oxa-1,3,6,10-tetraazaspiro[cyclohepta[de]naphthalene-9,3′-oxetan]-1(10a), 2,3a, 3a^1(6a), 5-pentaen-5-yl)-4-(trifluoromethyl)aniline] — 0.26 log units lower, 7.74
- CN1c2nc(OC[C@@]34CCCN3C[C@H](F)C4)nc3c(F)c(-c4cc(N)cc(Cl)c4C(F)(F)F)nc(c23)OC2CCCC21 (stereo partly drawn) [Example 45, 3-chloro-5-((7a, 10a-trans)-4-fluoro-2-(((2R,7aS)-2-fluorotetrahydro-1H-pyrrolizin-7a(5H)-yl)methoxy)-11-methyl-7a, 8,9,10,10a, 11-hexahydro-7-oxa-1,3,6,11-tetraazanaphtho[1,8-fg]azulen-5-yl)-4-(trifluoromethyl)aniline] — 0.34 log units higher, 8.34
- CCN1c2nc(OC[C@@]34CCCN3C[C@H](F)C4)nc3c(F)c(-c4cc(N)cc(Cl)c4C(F)(F)F)nc(c23)O[C@H]2COCC[C@@H]21 [Example 58, 3-chloro-5-((7aR,11aS)-12-ethyl-4-fluoro-2-(((2R,7aS)-2-fluorotetrahydro-1H-pyrrolizin-7a(5H)-yl)methoxy)-7a, 8,10,11,11a, 12-hexahydro-7,9-dioxa-1,3,6,12-tetraazaplciaden-5-yl)-4-(trifluoromethyl)aniline] — 1.20 log units higher, 9.20
- CN1c2nc(OC[C@@]34CCCN3C[C@H](F)C4)nc3c(F)c(-c4cc(N)cc(Cl)c4C(F)(F)F)nc(c23)O[C@H]2CCOC[C@@H]21 [Example 50, 3-chloro-5-((7aS,11aS)-4-fluoro-2-(((2R,7aS)-2-fluorotetrahydro-1H-pyrrolizin-7a(5H)-yl)methoxy)-12-methyl-7a, 8,11a, 12-tetrahydro-9H, 11H-7,10-dioxa-1,3,6,12-tetraazapleiaden-5-yl)-4-(trifluoromethyl)aniline] — 1.21 log units higher, 9.21
- CN1CC2(COC2)COc2nc(-c3cc(N)cc(Cl)c3C(F)(F)F)c(F)c3nc(OC[C@@]45CCCN4C[C@H](F)C5)nc1c23 [Example 11, 3-chloro-5-(4-fluoro-2-(((2R,7aS)-2-fluorotetrahydro-1H-pyrrolizin-7a(5H)-yl)methoxy)-11-methyl-10,11-dihydro-8H-7-oxa-1,3,6,11-tetraazaspiro[cycloocta[de]naphthalene-9,3′-oxetan]-1(11a), 2,3a, 3 al(6a), 5-pentaen-5-yl)-4-(trifluoromethyl)aniline] — 0.20 log units lower, 7.80
- Cc1cc(N)cc(-c2nc3c4c(nc(OC[C@@]56CCCN5C[C@H](F)C6)nc4c2F)N(C)CCO3)c1C(F)(F)F [Example 3, 3-(4-fluoro-2-(((2R,7aS)-2-fluorotetrahydro-1H-pyrrolizin-7a(5H)-yl)methoxy)-10-methyl-9,10-dihydro-8H-7-oxa-1,3,6,10-tetraazacyclohepta[de]naphthalen-5-yl)-5-methyl-4-(trifluoromethyl)aniline] — 0.46 log units lower, 7.54
- CC1CC(C)N(C)c2nc(OC[C@@]34CCCN3C[C@H](F)C4)nc3c(F)c(-c4cc(N)cc(Cl)c4C(F)(F)F)nc(c23)O1 (stereo partly drawn) [Example 21, 3-chloro-5-(4-fluoro-2-(((2R,7aS)-2-fluorotetrahydro-1H-pyrrolizin-7a(5H)-yl)methoxy)-8,10,11-trimethyl-8,9,10,11-tetrahydro-7-oxa-1,3,6,11-tetraazacycloocta[de]naphthalen-5-yl)-4-(trifluoromethyl)aniline] — 0.47 log units higher, 8.47
- C[C@@H]1CCOc2nc(-c3cc(N)cc(Cl)c3C(F)(F)F)c(F)c3nc(OC[C@@]45CCCN4C[C@H](F)C5)nc(c23)N1C [Example 26, 3-chloro-5-((R)-4-fluoro-2-(((2R,7aS)-2-fluorotetrahydro-1H-pyrrolizin-7a(5H)-yl)methoxy)-10,11-dimethyl-8,9,10,11-tetrahydro-7-oxa-1,3,6,11-tetraazacycloocta[de]naphthalen-5-yl)-4-(trifluoromethyl)aniline] — 0.89 log units higher, 8.89

pIC50: −log10 of the molar value.
